Test results as given in the supplement of paper PMC7826260.
Some of the results follow. Cleavage of a single-stranded DNA pool by Rep nickase domains was read by sequencing for 1 h at 37 °C with 3 µM enzyme; only the middle of the 90-letter strands is printed. Uncut reads are compared with the no-enzyme pool on a log2 scale; more negative means more cut, near 0 not cut, and no call is made. Because reads are shares of a total, they shift together; uncut strands gain when others are lost, and binding without cutting may add a little.

Assays:
Assay in all cases: uncleaved DNA left, log2 of reads against the no-enzyme library (log2 ratio); higher = less cleavage (more negative = more Rep cleavage of the k-mer); sequences stand for … in CTCGTCCG…ACCGGAGA
[1] = system: T1, Rep nickase domain of Muscovy duck circovirus
T1 sequence (Rep 1-111, printed without the tag): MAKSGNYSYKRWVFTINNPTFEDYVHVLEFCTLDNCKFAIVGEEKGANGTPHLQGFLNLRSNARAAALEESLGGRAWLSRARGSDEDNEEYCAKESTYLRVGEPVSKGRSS
Protocol: (§1)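 A pool of 90-nt single-stranded DNAs with seven random bases just before the constant AC of the nick site (name = the seven bases) was cut by 3 µM recombinant His6-SUMO-tagged Rep nickase domain (300 nM DNA, 50 mM HEPES pH 8.0, 50 mM NaCl, 1 mM MnCl2, 1 h, 37 °C, three replicates). Uncut DNA was amplified and sequenced.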

[2] = system: T2, Rep nickase domain of banana bunchy top virus
T2 sequence (Rep 1-94, printed without the tag): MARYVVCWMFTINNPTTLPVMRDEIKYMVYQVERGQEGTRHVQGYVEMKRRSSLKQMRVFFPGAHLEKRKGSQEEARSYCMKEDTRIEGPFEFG
Protocol: as §1

[3] = system: T3, Rep nickase domain of cabbage leaf curl virus
T3 sequence (Rep 1-116, printed without the tag): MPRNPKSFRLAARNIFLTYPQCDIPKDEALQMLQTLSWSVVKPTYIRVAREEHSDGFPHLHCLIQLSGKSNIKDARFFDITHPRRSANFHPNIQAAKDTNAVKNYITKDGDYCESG
Protocol: as §1

[4] = system: T4, Rep nickase domain of chickpea chlorotic dwarf virus
T4 sequence (Rep 1-124, printed without the tag): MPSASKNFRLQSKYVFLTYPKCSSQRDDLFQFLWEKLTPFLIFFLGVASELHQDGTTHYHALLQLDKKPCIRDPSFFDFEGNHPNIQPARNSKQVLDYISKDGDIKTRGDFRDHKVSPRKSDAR
Protocol: as §1

[5] = system: T5, Rep nickase domain of faba bean necrotic yellows virus
T5 sequence (Rep 1-98, printed without the tag): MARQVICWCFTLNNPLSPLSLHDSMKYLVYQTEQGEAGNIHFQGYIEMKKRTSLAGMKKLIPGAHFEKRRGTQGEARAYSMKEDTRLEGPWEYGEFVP
Protocol: as §1

[6] = system: T6, Rep nickase domain of maize striate mosaic virus
T6 sequence (Rep 1-117, printed without the tag): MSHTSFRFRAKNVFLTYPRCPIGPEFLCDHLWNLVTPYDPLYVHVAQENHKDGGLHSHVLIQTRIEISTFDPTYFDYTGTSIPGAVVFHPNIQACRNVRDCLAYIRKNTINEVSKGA
Protocol: as §1

[7] = system: T7, Rep nickase domain of porcine circovirus 2
T7 sequence (Rep 2-116, printed without the tag): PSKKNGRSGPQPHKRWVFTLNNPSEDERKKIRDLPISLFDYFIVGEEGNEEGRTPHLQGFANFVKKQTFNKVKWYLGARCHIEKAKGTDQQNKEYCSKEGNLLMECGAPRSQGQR
Protocol: as §1

[8] = system: T8, Rep nickase domain of tomato yellow leaf curl virus
T8 sequence (Rep 1-136, printed without the tag): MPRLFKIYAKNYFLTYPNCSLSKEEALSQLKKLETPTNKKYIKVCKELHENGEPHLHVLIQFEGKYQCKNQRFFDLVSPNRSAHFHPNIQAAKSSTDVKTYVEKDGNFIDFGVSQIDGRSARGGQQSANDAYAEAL
Protocol: as §1

[9] = system: T9, Rep nickase domain of wheat dwarf virus
T9 sequence (Rep 1-137, printed without the tag): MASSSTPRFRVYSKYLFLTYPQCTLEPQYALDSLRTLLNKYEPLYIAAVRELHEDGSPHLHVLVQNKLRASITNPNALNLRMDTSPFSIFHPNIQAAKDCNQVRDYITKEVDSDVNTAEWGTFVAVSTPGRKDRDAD
Protocol: as §1

Row | Sequence | uncleaved DNA left (log2) [1] | uncleaved DNA left (log2) [2] | uncleaved DNA left (log2) [3] | uncleaved DNA left (log2) [4] | uncleaved DNA left (log2) [5] | uncleaved DNA left (log2) [6] | uncleaved DNA left (log2) [7] | uncleaved DNA left (log2) [8] | uncleaved DNA left (log2) [9]
1 | CCGCACC | -0.142 | -0.178 | -0.19 | -0.416 | -0.0606 | -0.641 | -0.185 | -0.154 | -0.0606
2 | CCATCAT | 0.0173 | 0.0298 | 0.276 | -0.335 | -0.041 | -0.369 | -0.247 | 0.044 | 0.0374
3 | AGCCCGT | -0.123 | -0.0604 | 0.518 | 1.25 | 0.046 | 1.01 | -0.0427 | -0.0131 | 0.068
4 | GCATAAC | 0.0913 | 0.156 | -0.122 | -0.553 | 0.0626 | -0.378 | 0.183 | -0.00152 | 0.0154
5 | TAGCGGC | 0.0736 | 0.0228 | -0.0271 | 0.0973 | -0.0577 | -0.0226 | 0.184 | 0.03 | 0.0438
6 | GAATGAC | 0.0164 | 0.0453 | 0.33 | 0.937 | -0.0135 | 1.1 | 0.172 | 0.101 | 0.102
7 | AAGCAAT | -0.146 | 0.0133 | 0.195 | 0.713 | -0.00296 | 1.22 | -2.71 | -0.134 | -0.0292
8 | AGCTATC | -0.0836 | -0.0407 | 0.153 | 0.547 | -0.0541 | 0.0642 | -0.165 | 0.0703 | 0.0241
9 | ACTTGTA | 0.00247 | -0.0106 | -0.358 | -1.08 | 0.0457 | -0.939 | -0.387 | 0.035 | -0.0576
10 | ATACGGG | 0.0426 | 0.00241 | -0.251 | -0.154 | 0.0164 | -0.795 | 0.278 | 0.0246 | -0.0221
11 | TGGGGTG | 0.139 | -0.00794 | -0.158 | -0.0977 | 0.0753 | -0.215 | 0.218 | -0.0596 | 0.0726
12 | ATTGCTA | -0.00183 | -0.0185 | -0.695 | -0.87 | 0.0565 | -1.03 | -0.0279 | 0.0922 | 0.0807
13 | GTCATTC | 0.131 | 0.104 | 0.404 | 1.09 | 0.119 | 1.42 | 0.208 | 0.163 | 0.141
14 | CCCATCT | -0.0216 | -0.024 | -0.186 | -2.14 | -0.094 | -0.822 | -0.142 | -0.102 | 0.0112
15 | AATCGAT | 0.0737 | 0.00043 | 0.233 | 0.848 | -0.0492 | 1.21 | -0.262 | -0.0768 | 0.0828
